Results: PubChem BioAssay AID588453 (National Center for Advancing Translational Sciences (NCATS), 2011)
Screen size: about 390,000 compounds; about 4,000 (1%) were called active. This list was built around the results that the source calls inconclusive (neither active nor inactive); the mix of calls is not that of the screen. Calls follow the shape of the dose curve; as a rule, active = well fitted inhibition curve with a large enough effect; inconclusive = small, poorly fitted or top-dose-only effect; inactive = no such curve, though single readings can be large or run the other way. Where the call is inconclusive, the potency comes from a doubtful curve fit.

Molecular target: Thioredoxin reductase 1, cytoplasmic (Rattus norvegicus) (UniProt O89049)
UniProt O89049, sequence (O89049 whole entry, looked up): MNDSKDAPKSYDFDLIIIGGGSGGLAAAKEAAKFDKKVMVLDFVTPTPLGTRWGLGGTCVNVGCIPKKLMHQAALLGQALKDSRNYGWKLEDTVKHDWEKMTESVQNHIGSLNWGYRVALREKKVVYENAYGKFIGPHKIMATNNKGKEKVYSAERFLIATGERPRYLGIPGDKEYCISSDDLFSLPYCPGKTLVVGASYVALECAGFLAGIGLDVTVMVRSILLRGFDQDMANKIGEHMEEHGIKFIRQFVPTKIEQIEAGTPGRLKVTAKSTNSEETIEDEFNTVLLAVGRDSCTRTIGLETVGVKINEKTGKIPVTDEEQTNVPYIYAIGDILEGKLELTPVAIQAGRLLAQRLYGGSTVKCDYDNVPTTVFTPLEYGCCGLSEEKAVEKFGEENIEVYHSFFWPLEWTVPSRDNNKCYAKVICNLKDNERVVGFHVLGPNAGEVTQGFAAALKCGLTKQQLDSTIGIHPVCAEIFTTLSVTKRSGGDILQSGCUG
Test: qHTS Assay for Inhibitors of Mammalian Selenoprotein Thioredoxin Reductase 1 (TrxR1): qHTS; also: nearly all actives have a fitted effect of over 65% in size
Conditions: recombinant rTrxR1, NADPH fluorescence consumption, selenite substrate; series mostly up to 114 µM
How it was run: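 Rat TrxR1 (90 nM in the dispensed reagent) was pre-reduced with 400 uM NADPH for 5 min at room temperature, then incubated with compound for 15 min. After 400 uM selenite was added, NADPH fluorescence (Ex 340/Em 450 nm) was followed for 8 min.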
% is scaled to controls: 0 for no effect and ±100 for the full control effect; potency is read from the fitted curve at half-maximal effect; tags tell the direction and shape of the fitted curve.

Compound | Potency | activity change, negative = inhibition
COC(=O)C1=C(C)N(Cc2ccco2)C(=O)/C1=C\c1ccc([N+](=O)[O-])cc1 | active: 20 µM | 
CCN1CCN(C(c2ccc(F)cc2)c2c(O)cc(C)n(CCOC)c2=O)CC1 (configuration not stated) | inconclusive: 11.2 µM [inhibitor, partial curve, poor fit] | 
CCOC(=O)c1sc(N/N=C/c2ccccc2)nc1C | inactive | 
CCC(=O)Oc1c(S(=O)(=O)c2ccc(C)cc2)c(C)nn1C(C)(C)C | inactive | 
COC(=O)C1=NNC2(C)C(=O)N(c3ccc(C)cc3)C(=O)C12 (configuration not stated) | inactive | 
CCOC(=O)CSCC(=O)N1N=C(c2cccs2)CC1c1ccc(F)cc1 (configuration not stated) | inconclusive: 7.94 µM [inhibitor, full curve, poor fit] | 
CC(C)(C)C(=O)/C(=C/c1ccncc1)n1cncn1 | active: 17.8 µM | 
Cc1ccc(C(=O)c2no[n+]([O-])c2C(=O)c2ccc(C)cc2)cc1 | active: 0.891 µM | 
Cn1nnnc1Sc1ncnc2scc(-c3cc4ccccc4o3)c12 | inconclusive: 12.6 µM [inhibitor, full curve] | 
COc1ccc(CNC(=O)C[C@H]2C[C@H](C(=O)N3CCOCC3)[C@@]3(C)c4[nH]c5cc(-c6ccco6)ccc5c4CCN3C2=O)cc1OC | inconclusive: 89.1 µM [inhibitor, partial curve, poor fit] | 
Cc1cc(=O)oc2cc(OC(=O)CCN3C(=O)c4ccccc4C3=O)ccc12 | active: 39.8 µM | 
CCOc1ccccc1NC(=O)c1nnn(-c2ccc3c(c2)OCCO3)c1N | inactive | 
O=S(=O)(Cc1ccccc1)c1cnc2ccccc2n1 | inconclusive: 89.1 µM [inhibitor, single point] | 
CC(C)(C)c1ccc(C(=O)NC(=S)NCc2cccnc2)cc1 | inconclusive: 50.1 µM [inhibitor, partial curve] | 
CC(C)CC(=O)N1CCN(C(=O)c2ccco2)CC1 | inactive | 
CCOC(=O)c1c(NC(=S)Nc2cccc(C)c2)sc2c1CC(C)(C)SC2 | inconclusive: 50.1 µM [inhibitor, single point] | 
CCCn1c(SCC(=O)c2cc(OC)ccc2OC)nnc1-c1ccco1 | inconclusive: 39.8 µM [inhibitor, single point] | 
COC(=O)c1c(NC(=O)c2nc3ccccc3s2)sc2c1CCN(C(C)=O)C2 | inactive | 
CCCCc1ccc(NC(=S)Nc2cccnc2)cc1 | inconclusive: 44.7 µM [inhibitor, partial curve] | 
Cn1nnc2c(NCc3ccco3)ncnc21 | inconclusive: 56.2 µM [inhibitor, partial curve, poor fit] | 
Cc1ccc2[nH]c(=O)c(CN(CCO)Cc3nnnn3Cc3ccco3)cc2c1 | inconclusive: 56.2 µM [inhibitor, partial curve, poor fit] | 
COc1ccc(C(C)=O)cc1COC(=O)CNC(=O)c1ccccc1F | active: 15.8 µM | 
Cc1ccc(OCC(=O)NCC2(N(C)C)CCCCC2)cc1C | inactive | 
Cc1nnc(NC(=O)CSc2nnc(Cc3cccn3C)n2-c2cccc(C(F)(F)F)c2)s1 | inconclusive: 28.2 µM [inhibitor, partial curve, poor fit] | 

Compound | Potency | activity change, negative = inhibition
COC(=O)c1ccc(CSc2nnc3c(Cl)cc(Cl)cn23)o1 | inconclusive: 39.8 µM [inhibitor, single point] | 
CC(C)Cc1nnc(NC(=O)C23CC4CC(CC(C4)C2)C3)s1 | inactive | 
O=C(CSc1nc2ccccc2c(=O)n1-c1ccc(F)cc1)NCc1ccco1 | inconclusive: 50.1 µM [inhibitor, partial curve] | 
CC[C@@H]1C=C(C(=O)O)[C@H](c2ccc(Cl)cc2)N1S(=O)(=O)c1ccc(C)cc1 | inconclusive: 44.7 µM [inhibitor, partial curve] | 
COc1ccc(C(=O)Nc2nnc(C(C)C)s2)cc1OC | active: 79.4 µM | 
CC1CN(C(=O)c2ccc(S(=O)(=O)Nc3cccc(C(F)(F)F)c3)cc2)CC(C)O1 (configuration not stated) | inactive | 
Cc1[nH][nH]c(=O)c1C(c1c(C)[nH][nH]c1=O)c1cn(C)c2ccccc12 |  | inactive: 26.9% [at 11.4 µM]
COc1ccc(NC(=O)CN(C)S(=O)(=O)c2ccc(Br)s2)cc1OC | inconclusive: 89.1 µM [inhibitor, partial curve, poor fit] | 
COc1cc(/C=N\NC(=O)CC(=O)NCCc2ccccc2)ccc1O | inactive | 
O=C(NNC(=S)NC1CCCCC1)c1cccs1 | inactive | 
Cc1cccc(C)c1OCc1cc(=O)n2c3c(sc2n1)CCCC3 | inactive | 
Nn1c(Cc2cccc3ccccc23)nnc1SCc1c(F)cccc1Cl | inconclusive: 79.4 µM [inhibitor, single point] | 
CCCC(=O)Nc1ccc2nc(SCC(=O)Nc3nccs3)sc2c1 | inactive | 
Cc1ccc(NC(=O)COC(=O)c2nn(C)c(=O)c3ccccc23)cc1F | inconclusive: 39.8 µM [inhibitor, single point] | 
CN(C)CCNc1oc(COc2ccc(Cl)cc2)nc1C#N | active: 14.1 µM | 
CCOc1ccc(CNC(=O)CC(C)n2nc(C)cc2C)cc1OC (configuration not stated) | inactive | 
COc1ccc(-c2nnc(NC(=O)c3ccc([N+](=O)[O-])o3)o2)c(OC)c1 | inconclusive: 50.1 µM [inhibitor, single point] | 
C(=C\c1ccccc1)/CSc1nnc(-c2ccncc2)n1Cc1ccco1 | inconclusive: 39.8 µM [inhibitor, full curve, poor fit] | 
CC(C)NC(=O)c1ccc(S(=O)(=O)N(C)C)cc1 | inconclusive: 79.4 µM [inhibitor, partial curve, poor fit] | 
CCN(CC)S(=O)(=O)c1ccc(NC(=S)Nc2ccccc2)cc1 | inconclusive: 15.8 µM [inhibitor, full curve] | 
CCN1CCN(C(c2ccc(C)cc2)c2c(O)cc(C)n(Cc3ccco3)c2=O)CC1 (configuration not stated) | inconclusive: 10 µM [inhibitor, partial curve] | 
CC1=C/C(=N\OS(=O)(=O)c2ccccc2)C(C(C)C)=CC1=O | inconclusive: 22.4 µM [inhibitor, full curve] | 
Cc1ccc(S(=O)(=O)/N=C(/Sc2ccccc2C(=O)O)c2ccccc2)cc1 | inconclusive: 39.8 µM [inhibitor, partial curve] | 
